Experimental data: PMC8970588
Results are given in words; binding and its absence hold for the method and conditions named. For part of these data: Binding seen in cells or lysates may run through a third protein. Some binding calls cover weakened binding; strength is not graded here. For part of these data: Where a sequence is shown, tags or fusion partners need not be part of it. Values belong to the binder of their own block, whether it stands above or below them.

Chains of the proteins cited; added tags and fusions are not shown. Lines headed by an entry give the natural chain unless they say otherwise; changes in a name come on top. A line that says so, or that is headed by a name, gives the form on record, which may keep a tag or linker. Residues count along the entry.
UniProt P25655: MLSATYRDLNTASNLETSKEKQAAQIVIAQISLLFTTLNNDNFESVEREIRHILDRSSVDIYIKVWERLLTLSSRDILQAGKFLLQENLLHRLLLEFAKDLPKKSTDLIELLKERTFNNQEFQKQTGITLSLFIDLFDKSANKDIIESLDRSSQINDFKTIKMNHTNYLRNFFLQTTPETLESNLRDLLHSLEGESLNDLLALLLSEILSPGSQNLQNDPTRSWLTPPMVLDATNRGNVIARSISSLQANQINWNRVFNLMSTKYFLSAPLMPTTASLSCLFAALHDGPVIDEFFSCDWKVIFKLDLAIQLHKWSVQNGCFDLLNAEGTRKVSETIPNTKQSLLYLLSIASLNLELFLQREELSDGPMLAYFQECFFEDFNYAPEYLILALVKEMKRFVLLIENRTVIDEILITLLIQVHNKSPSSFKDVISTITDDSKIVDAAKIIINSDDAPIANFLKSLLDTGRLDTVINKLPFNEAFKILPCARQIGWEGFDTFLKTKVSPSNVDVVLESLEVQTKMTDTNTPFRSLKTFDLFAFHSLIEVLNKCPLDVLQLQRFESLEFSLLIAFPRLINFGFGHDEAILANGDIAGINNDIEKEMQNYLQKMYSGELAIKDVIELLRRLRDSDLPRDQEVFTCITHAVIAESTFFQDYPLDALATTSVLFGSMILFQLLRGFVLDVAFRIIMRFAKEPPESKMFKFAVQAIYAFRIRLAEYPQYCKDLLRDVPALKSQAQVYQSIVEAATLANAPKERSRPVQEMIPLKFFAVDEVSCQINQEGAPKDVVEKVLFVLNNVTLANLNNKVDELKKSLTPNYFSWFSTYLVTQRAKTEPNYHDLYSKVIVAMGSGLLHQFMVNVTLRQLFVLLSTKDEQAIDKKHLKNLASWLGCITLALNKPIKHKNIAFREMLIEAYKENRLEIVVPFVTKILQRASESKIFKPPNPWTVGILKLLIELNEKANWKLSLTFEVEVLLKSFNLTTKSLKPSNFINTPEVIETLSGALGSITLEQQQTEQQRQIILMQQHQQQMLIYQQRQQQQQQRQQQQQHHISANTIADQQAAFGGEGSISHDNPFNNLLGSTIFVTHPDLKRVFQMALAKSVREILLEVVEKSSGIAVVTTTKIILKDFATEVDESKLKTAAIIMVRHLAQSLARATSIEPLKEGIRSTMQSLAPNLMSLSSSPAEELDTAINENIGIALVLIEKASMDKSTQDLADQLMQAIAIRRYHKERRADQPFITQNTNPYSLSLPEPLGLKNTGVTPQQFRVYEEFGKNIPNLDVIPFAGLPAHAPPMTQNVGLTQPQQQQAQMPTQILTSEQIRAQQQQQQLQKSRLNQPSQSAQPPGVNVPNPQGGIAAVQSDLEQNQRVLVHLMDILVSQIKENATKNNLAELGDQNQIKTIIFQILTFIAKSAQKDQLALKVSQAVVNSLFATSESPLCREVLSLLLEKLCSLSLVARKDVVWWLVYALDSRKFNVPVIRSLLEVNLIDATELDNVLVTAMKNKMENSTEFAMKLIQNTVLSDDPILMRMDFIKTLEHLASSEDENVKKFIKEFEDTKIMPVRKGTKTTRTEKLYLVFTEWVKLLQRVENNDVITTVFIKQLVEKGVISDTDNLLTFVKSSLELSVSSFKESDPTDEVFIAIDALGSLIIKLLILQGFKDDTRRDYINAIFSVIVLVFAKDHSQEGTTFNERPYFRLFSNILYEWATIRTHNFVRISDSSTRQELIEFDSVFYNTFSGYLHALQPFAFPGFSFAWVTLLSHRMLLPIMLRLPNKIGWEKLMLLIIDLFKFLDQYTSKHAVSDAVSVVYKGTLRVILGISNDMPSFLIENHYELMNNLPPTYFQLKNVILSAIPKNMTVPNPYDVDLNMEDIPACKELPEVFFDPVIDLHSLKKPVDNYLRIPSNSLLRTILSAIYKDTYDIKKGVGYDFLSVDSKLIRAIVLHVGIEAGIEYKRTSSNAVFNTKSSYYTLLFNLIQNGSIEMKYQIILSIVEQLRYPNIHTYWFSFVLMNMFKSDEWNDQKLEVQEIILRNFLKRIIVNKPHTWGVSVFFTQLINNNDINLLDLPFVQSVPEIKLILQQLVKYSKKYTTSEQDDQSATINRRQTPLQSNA
Not1.154C-GFP (Not1 lacking the first 153 amino acids, C-terminally GFP-tagged): residues 154-2108 of P25655

How the values were obtained:
[1] = biological target: T1, full-length Cal4, yeast two-hybrid fusion (S. cerevisiae) (UniProt P47086); assay: two-hybrid; reporter strain PJ69-4A; bait fused to Gal4 DNA-binding domain, prey fused to Gal4 activation domain; growth on SC-Leu-Trp-His (HIS3) and SC-Leu-Trp-Ade (ADE2) plates, 3 days at 30°C
T1 sequence: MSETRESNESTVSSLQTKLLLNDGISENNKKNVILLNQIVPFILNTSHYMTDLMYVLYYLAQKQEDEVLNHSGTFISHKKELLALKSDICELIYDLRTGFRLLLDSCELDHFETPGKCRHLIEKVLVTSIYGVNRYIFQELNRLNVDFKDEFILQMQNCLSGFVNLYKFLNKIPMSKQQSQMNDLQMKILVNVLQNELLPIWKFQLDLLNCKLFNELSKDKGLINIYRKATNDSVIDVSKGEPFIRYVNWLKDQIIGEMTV

[2] = biological target: Not1.154C-GFP (Not1 lacking the first 153 amino acids, C-terminally GFP-tagged) (S. cerevisiae) (UniProt P25655); assay: co-IP; GFP-Trap magnetic agarose beads capture the C-terminally GFP-tagged bait from yeast cell lysate (2 hr at 4°C; 50 mM Tris-HCl pH 7.5, 100 mM NaCl, 1.5 mM MgCl2, 5% glycerol, 0.1% NP-40; nine washes); C-terminally TAP-tagged prey detected by Western blot (anti-protA); strains with nontagged bait as background control
[3] = biological target: T2, Egd2-GFP (S. cerevisiae) (UniProt P38879); assay: as above
T2 sequence: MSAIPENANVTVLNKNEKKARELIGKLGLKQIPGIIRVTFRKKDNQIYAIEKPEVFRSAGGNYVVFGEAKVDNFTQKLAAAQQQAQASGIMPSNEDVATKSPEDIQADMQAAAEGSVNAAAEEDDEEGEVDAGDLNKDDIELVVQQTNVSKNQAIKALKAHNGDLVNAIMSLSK

[4] = biological target: T3, Btt1-GFP (S. cerevisiae) (UniProt P40314); assay: as above
T3 sequence: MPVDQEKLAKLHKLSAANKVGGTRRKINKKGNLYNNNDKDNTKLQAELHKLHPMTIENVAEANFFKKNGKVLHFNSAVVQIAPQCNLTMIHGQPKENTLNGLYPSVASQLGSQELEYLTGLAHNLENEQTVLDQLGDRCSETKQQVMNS

[5] = biological target: Not1-GFP (full-length Not1, C-terminally GFP-tagged) (S. cerevisiae) (UniProt P25655); assay: as above
[6] = biological target: T4, Cal4-GFP (S. cerevisiae) (UniProt P47086); assay: as above
T4 sequence: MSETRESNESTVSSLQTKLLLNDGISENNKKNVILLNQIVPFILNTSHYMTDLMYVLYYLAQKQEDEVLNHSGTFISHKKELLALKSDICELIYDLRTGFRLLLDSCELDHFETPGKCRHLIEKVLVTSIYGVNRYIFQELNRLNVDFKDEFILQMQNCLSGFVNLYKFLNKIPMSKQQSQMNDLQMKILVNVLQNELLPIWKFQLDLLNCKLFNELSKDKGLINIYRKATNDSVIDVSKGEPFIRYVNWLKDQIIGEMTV

[7] = biological target: T5, full-length Egd2, yeast two-hybrid fusion (S. cerevisiae) (UniProt P38879); assay: two-hybrid; reporter strain PJ69-4A; bait fused to Gal4 DNA-binding domain, prey fused to Gal4 activation domain; growth on SC-Leu-Trp-His (HIS3) and SC-Leu-Trp-Ade (ADE2) plates, 3 days at 30°C
T5 sequence: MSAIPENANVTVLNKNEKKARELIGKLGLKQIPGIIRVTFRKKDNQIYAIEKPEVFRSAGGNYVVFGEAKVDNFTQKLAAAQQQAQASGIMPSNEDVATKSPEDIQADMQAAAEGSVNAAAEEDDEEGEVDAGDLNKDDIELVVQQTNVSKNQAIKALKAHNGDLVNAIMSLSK

[8] = biological target: full-length Not1, yeast two-hybrid fusion (S. cerevisiae) (UniProt P25655); assay: as above
[9] = biological target: T6, full-length Btt1, yeast two-hybrid fusion (S. cerevisiae) (UniProt P40314); assay: as above
T6 sequence: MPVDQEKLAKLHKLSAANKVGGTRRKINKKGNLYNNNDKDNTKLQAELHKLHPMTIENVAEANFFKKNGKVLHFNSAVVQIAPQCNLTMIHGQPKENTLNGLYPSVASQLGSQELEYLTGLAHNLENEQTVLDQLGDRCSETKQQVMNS

B1: Caf130 (amino acids 686–938), yeast two-hybrid fusion (domain or fragment, UniProt P53280 686-938)
chain: SPNPLSVRSRSTFEFDYSGEDWRDVPRDFNMYYSPSYSFIHEPKLDVIFSLTLRGATEKLNKEESILLVRSVASCVRNEQDQMILADLESNFSASINGDVEGEGNTKMSKIDNEDLRRTTPDDIYEIWSEESAFERMLNVNHDVAWRLMDEMLMCTGYRRILIWFLTHLELKHSLIYYVFELIMGLRGKPFSGEASDQDKKDDMIYEILKKKQKNEDASGLPFSRQGPIVLSDIETKMLLQEFFMNAAIFLSS
binding [1]: binds

Binder: MTIENVAEANFFKKNGKVLHFNSAVVQIAPQCNLTMIHGQPKENTLNG (domain or fragment, UniProt P40314 54-101) [Btt1 (amino acids 54–101), yeast two-hybrid fusion]
binding [7]: binds

B6: Caf130 (amino acids 40–655), yeast two-hybrid fusion (domain or fragment, UniProt P53280 40-655)
chain: DKNYVPSVENLEKILYNETMFNDQKICSNLLLEALIITLFTTISGKSALRLIQTSSLKERKSWAQSFENNSSSYASIVLSWKDNDILLLKFLRFLLANKTAPLQINRYNLPEYKLPLSFLIVSKITIPSILLNETYNLLKDYLYSITGRIESLISCSSTFDKPALVVRKILKDYNRMIECRNFYFWYSFNAENRVNLTFSDNISLLMENDEGNAGSGLDDSRFDHQKQPREAIMGRTINDQEQIYSFELNQDGTLEIPNVMEHSLLRHELLFKILNLTTVLTPLLELQFSTLCGLVDPLMQPTPNDKHIISIDFLFQLFLGLMSQSIKTSQEHNDHYDWKFYMCFNMQKIIDATMLRLNCFDFDILNSVNNTDNAVHWKTQLHRWLPHGLNTQDLELLYMIDILAVYTIYKLYEKIPIQLNPFLFSLISLWKNLSCVILLALEIDRIEEENGTYETPLMVRATIRGAAALRSVIATVLNGLVKNNDHDFKHESLNTFMSPYGRKLCHGALYADLRSHTASLLALGASIEDVTDLFADLQSGDRFDEDIRYMFDYECEDYDESFSESDHGGLDESVVNPTEKIASGSNNVFFRRRCNCIFNDDKLVAEDGANEAFGS
binding [8]: binds

B7: Caf130 (amino acids 292–655), yeast two-hybrid fusion (domain or fragment, UniProt P53280 292-655)
chain: GTLEIPNVMEHSLLRHELLFKILNLTTVLTPLLELQFSTLCGLVDPLMQPTPNDKHIISIDFLFQLFLGLMSQSIKTSQEHNDHYDWKFYMCFNMQKIIDATMLRLNCFDFDILNSVNNTDNAVHWKTQLHRWLPHGLNTQDLELLYMIDILAVYTIYKLYEKIPIQLNPFLFSLISLWKNLSCVILLALEIDRIEEENGTYETPLMVRATIRGAAALRSVIATVLNGLVKNNDHDFKHESLNTFMSPYGRKLCHGALYADLRSHTASLLALGASIEDVTDLFADLQSGDRFDEDIRYMFDYECEDYDESFSESDHGGLDESVVNPTEKIASGSNNVFFRRRCNCIFNDDKLVAEDGANEAFGS
binding [9]: binds

Further lines, results first:

binding [2]: binds
B2: Not5-TAP (protein, UniProt Q12514 1-560)
chain: MSQRKLQQDIDKLLKKVKEGIEDFDDIYEKFQSTDPSNSSHREKLESDLKREIKKLQKHRDQIKTWLSKEDVKDKQSVLMTNRRLIENGMERFKSVEKLMKTKQFSKEALTNPDIIKDPKELKKRDQVLFIHDCLDELQKQLEQYEAQENEEQTERHEFHIANLENILKKLQNNEMDPEPVEEFQDDIKYYVENNDDPDFIEYDTIYEDMGCEIQPSSSNNEAPKEGNNQTSLSSIRSSKKQERSPKKKAPQRDVSISDRATTPIAPGVESASQSISSTPTPVSTDTPLHTVKDDSIKFDNSTLGTPTTHVSMKKKESENDSEQQLNFPPDRTDEIRKTIQHDVETNAAFQNPLFNDELKYWLDSKRYLMQPLQEMSPKMVSQLESSLLNCPDSLDADSPCLYTKPLSLPHPTSIFFPNEPIRFVYPYDVPLNLTNNENDTDNKFGKDSKAKSKKDDDIYSRTSLARIFMKFDLDTLFFIFYHYQGSYEQFLAARELFKNRNWLFNKVDRCWYYKEIEKLPPGMGKSEEESWRYFDYKKSWLARRCGNDFVYNEEDFEKL

binding [2]: binds
B3: Not2-TAP (protein, UniProt P06100 1-191)
chain: MEKFGLKALVPLLKLEDKELSSTYDHSMTLGADLSSMLYSLGIPRDSQDHRVLDTFQSPWAETSRSEVEPRFFTPESFTNIPGVLQSTVTPPCFNSIQNDQQRVALFQDETLFFLFYKHPGTVIQELTYLELRKRNWRYHKTLKAWLTKDPMMEPIVSADGLSERGSYVFFDPQRWEKCQRDFLLFYNAIM

binding [1]: no binding
B4: full-length Btt1, yeast two-hybrid fusion (protein, UniProt P40314 1-149)
chain: MPVDQEKLAKLHKLSAANKVGGTRRKINKKGNLYNNNDKDNTKLQAELHKLHPMTIENVAEANFFKKNGKVLHFNSAVVQIAPQCNLTMIHGQPKENTLNGLYPSVASQLGSQELEYLTGLAHNLENEQTVLDQLGDRCSETKQQVMNS

binding [3]: binds
binding [4]: no binding
binding [5]: no binding
binding [6]: no binding
B5: Egd1-TAP (protein, UniProt Q02642 1-157)
chain: MPIDQEKLAKLQKLSANNKVGGTRRKLNKKAGSSAGANKDDTKLQSQLAKLHAVTIDNVAEANFFKDDGKVMHFNKVGVQVAAQHNTSVFYGLPQEKNLQDLFPGIISQLGPEAIQALSQLAAQMEKHEAKAPADAEKKDEAIPELVEGQTFDADVE

binding [4]: binds
binding [2]: no binding
binding [5]: binds
binding [6]: binds
B8: Caf130-TAP (protein, UniProt P53280 1-1122)
chain: MTKKKAATNYAERQNLASEDSSGDSVHFKDFIPLQELLKDKNYVPSVENLEKILYNETMFNDQKICSNLLLEALIITLFTTISGKSALRLIQTSSLKERKSWAQSFENNSSSYASIVLSWKDNDILLLKFLRFLLANKTAPLQINRYNLPEYKLPLSFLIVSKITIPSILLNETYNLLKDYLYSITGRIESLISCSSTFDKPALVVRKILKDYNRMIECRNFYFWYSFNAENRVNLTFSDNISLLMENDEGNAGSGLDDSRFDHQKQPREAIMGRTINDQEQIYSFELNQDGTLEIPNVMEHSLLRHELLFKILNLTTVLTPLLELQFSTLCGLVDPLMQPTPNDKHIISIDFLFQLFLGLMSQSIKTSQEHNDHYDWKFYMCFNMQKIIDATMLRLNCFDFDILNSVNNTDNAVHWKTQLHRWLPHGLNTQDLELLYMIDILAVYTIYKLYEKIPIQLNPFLFSLISLWKNLSCVILLALEIDRIEEENGTYETPLMVRATIRGAAALRSVIATVLNGLVKNNDHDFKHESLNTFMSPYGRKLCHGALYADLRSHTASLLALGASIEDVTDLFADLQSGDRFDEDIRYMFDYECEDYDESFSESDHGGLDESVVNPTEKIASGSNNVFFRRRCNCIFNDDKLVAEDGANEAFGSTNSENVEGAMHNNRNAVHNATTATSDHVVTSPNPLSVRSRSTFEFDYSGEDWRDVPRDFNMYYSPSYSFIHEPKLDVIFSLTLRGATEKLNKEESILLVRSVASCVRNEQDQMILADLESNFSASINGDVEGEGNTKMSKIDNEDLRRTTPDDIYEIWSEESAFERMLNVNHDVAWRLMDEMLMCTGYRRILIWFLTHLELKHSLIYYVFELIMGLRGKPFSGEASDQDKKDDMIYEILKKKQKNEDASGLPFSRQGPIVLSDIETKMLLQEFFMNAAIFLSSKNNEEENEDGEKISLYSLGLVRLICYMVQTLIANDKFFFTKSECTFELQTLLMTWIGILPEAKDLFFKIKTRLAMEEEDSADTMQHEGRKNSDIEKKLNAKPASELNLKLLNLFPSKPANKDDSSPINTLRSFIADYSFDTQVNPPGRRVVFYDGKILPLPKADKPIPLHEYITLAELDVGDSE
